The other results are listed elsewhere or left out. Many values rest on one well or one pass, so single values are uncertain.
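Further: cell number obtained by counting DAPI-stained nuclei in high-throughput microscope images with image analysis software, screen run in 1,536-well plates.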

The assay relates to SkMel28. Briefly: cell count relative to DMSO control; melanoma cells; higher = more viable cells. As to conditions: library dose: low library concentration; 72 h.
In the case of `CN(NC(=O)CC(=O)NN(C)C(=S)c1ccccc1)C(=S)c1ccccc1` + COc1ccc(-c2ccc3c(N4CCOCC4)nc(N4C[C@@H](C)O[C@@H](C)C4)nc3n2)cc1CO [KU0063794] (first compound 0.006 µM, partner dose 0.02 µM), the cell count stood at 88.6%.

For the molecule `CCc1ccc(CCOc2ccc(CC3SC(=O)NC3=O)cc2)nc1` (stereo not drawn) [pioglitazone] + COc1ccc(COc2ccc(Cc3cnc(N)nc3N)cc2OC)cc1 [GW2580] (first compound 2 µM, partner dose 1 µM), the cell count worked out at 102%. The molecule `Cc1ccc(NC(=O)c2cccc(N(C)C)c2)cc1NC(=O)c1ccc(O)cc1` + CCCCCCCCCCCC1=C(O)C(=O)C=C(O)C1=O [Embelin] (first compound 2 µM, partner dose 1.2 µM) showed a cell count of 103%.

Consider `Cc1ccc(NC(=O)c2cccc(N(C)C)c2)cc1NC(=O)c1ccc(O)cc1` + CCN(CC)CCCCNc1ncc2cc(-c3cc(OC)cc(OC)c3)c(NC(=O)NC(C)(C)C)nc2n1 [PD173074] (first compound 2 µM, partner dose 0.1 µM), for which the cell count was found to be 95.9%. The result for `CCc1ccc(CCOc2ccc(CC3SC(=O)NC3=O)cc2)nc1` (stereo not drawn) [pioglitazone] + CCCCCCCCCCCC1=C(O)C(=O)C=C(O)C1=O [Embelin] (first compound 2 µM, partner dose 1.2 µM) reads 100%; that for `COc1cc2c(Oc3ccc4[nH]c(C)cc4c3F)ncnc2cc1OCCCN1CCCC1` [cediranib] + CCCCCCCCCCCC1=C(O)C(=O)C=C(O)C1=O [Embelin] (first compound 0.4 µM, partner dose 1.2 µM), 89.7%; that for `CC(C)(C)c1cnc(CSc2cnc(NC(=O)C3CCNCC3)s2)o1` + Cc1cc([N+](=O)[O-])ccc1NS(=O)(=O)c1cc(Cl)ccc1Cl [FH535] (first compound 0.01 µM, partner dose 1 µM), 79.8%.

As to `CC(C)(C)c1cnc(CSc2cnc(NC(=O)C3CCNCC3)s2)o1` + N#Cc1c(O)c2c(-c3ccc(-c4ccccc4O)cc3)csc2[nH]c1=O [A769662] (first compound 0.01 µM, partner dose 2 µM), the cell count was 88%.
